{"source": "PubChem BioAssay AID651820", "about": "(National Center for Advancing Translational Sciences (NCATS), 2012)", "note": "Values joined by “and” are separate entries in the source; they are usually repeats but may differ in a detail not shown here. Equal entries are not always repeated. About 12,000 (3.5%) of roughly 340,000 compounds were called active. This list was built around the results that the source calls inconclusive (neither active nor inactive); the mix of calls is not that of the screen. Calls come from the whole dose curve; as a rule, active = well fitted inhibition curve with a large enough effect; inconclusive = small, poorly fitted or top-dose-only effect, or another doubt; inactive = no such curve, though single readings can be large or run the other way. Potencies beside an inconclusive call are fits to weak or partial responses and may not hold up. % is set by controls: 0 for no effect and ±100 for the full control effect; potency is the fitted concentration of half-maximal effect; tags give direction and shape of the fitted curve."}
{"assay": "qHTS Assay for Inhibitors of Hepatitis C Virus (HCV)", "settings": "Huh7.5.1 HCVcc-Cre (HCVcc is cell-culture hepatitis C virus) infection, luciferase reporter, 44 h; activity change, negative = inhibition: at 41.8 µM (top of the series)", "summary_of_the_method": "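Luciferase read-out (15 sec integration) after a 15 min room-temperature substrate step quantifies HCVcc-Cre infection. Cells, 1,000 per well, had compound added 4 h post-plating, then virus at ~0.5 moi, and were cultured 44 h.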"}
{"molecule": "O=C(c1cccc(Br)c1)c1cn(-c2ccccc2)nc1C(=O)c1ccccc1", "Potency": "inconclusive: 8.91 µM [inhibitor, partial curve]"}
{"molecule": "Cc1ccc(C(=O)N2CCCC2)cc1S(=O)(=O)Nc1ccccc1", "Potency": "inactive"}
{"molecule": "Cc1ccccc1-n1c(C)nnc1SCc1cc(=O)oc2ccc3ccccc3c12", "Potency": "inconclusive: 15.8 µM [inhibitor, single point]"}
{"molecule": "CN(C)C(=O)CCCc1nc(-c2ccc(Cl)cc2)no1", "Potency": "inconclusive: 12.6 µM [inhibitor, single point]"}
{"molecule": "Nc1nc(-c2ccc(Cl)cc2)c(N=Nc2ccc(S(=O)(=O)N3CCOCC3)cc2)s1", "Potency": "active: 11.2 µM"}
{"molecule": "CCC(C)[C@H](NC(=O)N1CCn2c1nc1ccccc12)C(=O)NCc1ccccc1", "note": "(stereo partly specified)", "Potency": "inactive"}
{"molecule": "Cc1ccc(N2CC(C(=O)Nc3nccs3)CC2=O)cc1Cl", "note": "(stereo unspecified)", "Potency": "inconclusive: 22.4 µM [inhibitor, single point]"}
{"molecule": "Cc1ccsc1C(=O)N1CCCC(N2CCN(c3cccc(Cl)c3)CC2)C1", "note": "(stereo unspecified)", "Potency": "inconclusive: 14.1 µM [inhibitor, single point]"}
{"molecule": "COc1ccc(C(=O)NC2CCc3ccccc32)cc1OC1CCN(C(C)=O)CC1", "note": "(stereo unspecified)", "Potency": "inactive"}
{"molecule": "Cc1ccc2c(c1)C=CC(C)N2C(=O)c1ccccc1", "note": "(stereo unspecified)", "Potency": "inactive"}
{"molecule": "c1cncc(-c2cn(C[C@H]3CC[C@@H]([C@@H]4CC[C@H](Cn5cc(-c6cccnc6)nn5)O4)O3)nn2)c1", "Potency": "inactive"}
{"molecule": "COc1ccc2[nH]c3c(c2c1)CCN1C(=O)N([C@@H](C)C(=O)NCCc2ccc(OC)c(OC)c2)C(=O)[C@]31C", "Potency": "inconclusive: 14.1 µM [inhibitor, single point]"}
{"molecule": "CC(C)C(=O)Nc1ccc(-c2csc(-c3ccccc3)n2)cc1", "Potency": "inconclusive: 0.316 µM [inhibitor, full curve]"}
{"molecule": "N/C(=N\\OC(=O)COc1ccc(Cl)cc1Cl)c1ccncc1", "Potency": "inconclusive: 11.2 µM [inhibitor, partial curve]"}
{"molecule": "Cc1ccc(C(=O)N2CCN(c3ccc([N+](=O)[O-])c(NCc4cccnc4)c3)CC2)cc1", "Potency": "active: 12.6 µM"}
{"molecule": "Cc1ccc(-c2cc(C(=O)NCCCn3ccnc3)no2)cc1", "Potency": "inactive"}
{"molecule": "Cc1nn(-c2ccccc2)c(C)c1C(=O)OCC(=O)Nc1ccccc1C(F)(F)F", "Potency": "inconclusive: 14.1 µM [inhibitor, partial curve]"}
{"molecule": "Cc1ccccc1-n1ncc(C(C)NC(=O)c2ccccc2)c1C", "note": "(stereo unspecified)", "Potency": "inconclusive: 22.4 µM [inhibitor, single point]"}
{"molecule": "O=C1Nc2ccccc2C12NCCc1c2[nH]c2ccccc12", "note": "(stereo unspecified)", "Potency": "inactive"}
{"molecule": "Cc1c(Cl)cccc1NC(=O)C1NC(=O)CC1c1ccccc1", "note": "(stereo unspecified)", "Potency": "inconclusive: 5.62 µM [inhibitor, single point]"}
{"molecule": "CCOc1ccc(C(=O)Nc2cc3c(cc2N2CCCC2)n(CC)c(=O)n3CC)cc1OCC", "Potency": "inconclusive: 14.1 µM [inhibitor, partial curve]"}
{"molecule": "CCn1c(SCC(=O)N2CCCc3ccccc32)nc2ccccc2c1=O", "Potency": "active: 5.01 µM"}
{"molecule": "CCN1C(=O)CC(NCc2ccc(S(N)(=O)=O)cc2)C1=O", "note": "(stereo unspecified)", "Potency": "inactive"}
{"molecule": "COc1cc(NC(=O)c2ccco2)c(OC)cc1NC(=O)CCC(=O)Nc1cc(C)ccc1C", "Potency": "inconclusive: 35.5 µM [inhibitor, partial curve]"}
{"molecule": "Cc1nnc(Nc2ccc(O)cc2)[nH]c1=O", "Potency": "active: 14.1 µM"}
{"molecule": "CSc1nc(-c2ccccc2)nc(N2CCCC2)c1C(C)=O", "Potency": "inconclusive: 10 µM [inhibitor, partial curve]"}
{"molecule": "O=C(Cn1nnc(-c2ccccc2)n1)N/N=C/c1ccco1", "Potency": "active: 12.6 µM"}
{"molecule": "COc1cccc(CN(C)C(=O)CSCC(=O)Nc2ccc(C)cc2)c1OC", "Potency": "inconclusive: 35.5 µM [inhibitor, partial curve]"}
{"molecule": "CCc1nnc(NC(=O)c2cc(-c3ccccc3)nn2-c2ccccc2)s1", "Potency": "inconclusive: 0.631 µM [inhibitor, full curve]"}
{"molecule": "O=C(Nc1cccnc1)c1ccc(C(=O)Nc2cccnc2)cc1", "Potency": "inactive"}
{"molecule": "Cc1nn(Cc2ccccc2Cl)c(C)c1NC(=O)c1nc2ncccn2n1", "Potency": "inactive"}
{"molecule": "COCCC(=O)N1CCC(Oc2ccc(C(=O)NCCCC3CCCC3)cc2)CC1", "Potency": "inconclusive: 31.6 µM [inhibitor, single point]"}
{"molecule": "O=C1CC(c2ccco2)CC2=C1C(c1ccccc1)n1nc(C(F)(F)F)nc1N2", "note": "(stereo unspecified)", "Potency": "inactive"}
{"molecule": "CC1(C)C(=O)Nc2ccccc2N1C(=O)CSc1nc(-c2ccccc2)cs1", "Potency": "inconclusive: 31.6 µM [inhibitor, single point]"}
{"molecule": "COc1ccc(C(=O)CC(Nc2ccc([N+](=O)[O-])cc2)c2ccc(OC)cc2)cc1", "note": "(stereo unspecified)", "Potency": "inconclusive: 11.2 µM [inhibitor, partial curve]"}
{"molecule": "CN1C[C@@H]2C(c3ccccc3)C3(c4ccc(C#N)cc4)CC2(C3)[C@H]1c1ccccc1", "note": "(stereo partly specified)", "activity change, negative = inhibition": "inactive: 19.3% [at 8.37 µM]"}
{"molecule": "Cc1cccc(/C=C/C(=O)c2ccc(N3CCOCC3)cc2)c1", "Potency": "inactive"}
{"molecule": "Cc1ccc(S(=O)(=O)N(C)CCCC(=O)Nc2ccncc2)cc1", "Potency": "active: 5.62 µM"}
{"molecule": "COc1cc(C(=O)NC2CCN(Cc3ccccc3)CC2)cc(Cl)c1OC", "Potency": "inconclusive: 12.6 µM [inhibitor, partial curve]"}
{"molecule": "Cc1ccc(C)c(N2CCN(C(=O)c3ccc(CS(=O)Cc4ccc(Cl)cc4)o3)CC2)c1", "note": "(stereo unspecified)", "Potency": "inconclusive: 11.2 µM [inhibitor, single point]"}
{"molecule": "O=C(NC(C(=O)c1ccccc1)N1CCOCC1)c1ccccc1", "note": "(stereo unspecified)", "Potency": "inactive"}
{"molecule": "Cc1ccc(NC(=O)COc2ccc(/C=C3/SC(=Nc4ccccc4)N(Cc4cccnc4)C3=O)cc2)cc1", "Potency": "inactive"}
{"molecule": "O=C(Nc1cccc(C(=O)Nc2cccc(Br)c2)c1)c1ccccc1", "Potency": "active: 14.1 µM"}
{"molecule": "Cc1cc(C)cc(N(CC(=O)NCc2ccccc2)C(=O)CCC(=O)Nc2ccccn2)c1", "Potency": "inconclusive: 3.16 µM [inhibitor, single point]"}
{"molecule": "Cc1ccc(S(=O)(=O)N(C)C)cc1NC(=O)CSc1nncs1", "Potency": "inactive"}
{"molecule": "Cc1ncc(CNC(=O)N(CCCl)N=O)c(N)n1", "Potency": "active: 2.82 µM"}
{"molecule": "Cc1cc(C)cc(NC(=S)N2CCN(c3ncccn3)CC2)c1", "Potency": "inconclusive: 22.4 µM [inhibitor, single point]"}
{"molecule": "CCCc1cc(=O)n2[nH]c(-c3ccccc3)cc2n1", "Potency": "inactive"}
{"molecule": "O=C(OCc1nc2ccccc2s1)[C@@H]1CCCN1S(=O)(=O)c1ccccc1F", "Potency": "inactive"}
{"molecule": "COc1ccc(C(C(=O)NC2CCCC2)N(C(=O)c2snc(-c3ccc(F)cc3)c2N)c2ccc(F)cc2)cc1", "note": "(stereo unspecified)", "Potency": "inconclusive: 22.4 µM [inhibitor, single point]"}
{"molecule": "CCOc1ccc(S(=O)(=O)N2CCN(C(=O)CCOc3ccccc3C)CC2)cc1", "Potency": "inconclusive: 12.6 µM [inhibitor, single point]"}
{"molecule": "C[n+]1c(-c2ccccc2)sc([S-])c1-c1ccccc1", "Potency": "inconclusive: 31.6 µM [inhibitor, single point]"}
{"molecule": "Cc1ccccc1-n1c(Cn2c(=O)sc3ccccc32)nnc1SC(C)C", "Potency": "inconclusive: 1.12 µM [inhibitor, full curve, poor fit]"}
{"molecule": "CC(=O)Nc1ccc(/C(C)=N/NC(=O)c2ccc(COc3ccccc3Cl)o2)cc1", "Potency": "inconclusive: 10 µM [inhibitor, partial curve]"}
{"molecule": "CCN(CC)CCN1C(=O)Cn2c(C)c(C)c3cccc1c32", "Potency": "inconclusive: 10 µM [inhibitor, partial curve, poor fit] and inconclusive: 14.1 µM [inhibitor, partial curve, poor fit]"}
{"molecule": "Cc1cccn2cc(-c3cccc(S(=O)(=O)N4CCCCC4)c3)nc12", "Potency": "inconclusive: 31.6 µM [inhibitor, single point]"}
{"molecule": "Cc1ccc(CNC(=O)CCn2ccc3cc(S(=O)(=O)N4CCCC4)ccc32)cc1", "Potency": "inconclusive: 14.1 µM [inhibitor, single point]"}
{"molecule": "Cc1ccc([N+](=O)[O-])cc1N=C(c1cccc(Br)c1)N1CCOCC1", "Potency": "inconclusive: 14.1 µM [inhibitor, single point]"}
{"molecule": "CC(=O)c1ccc(N2CCN(c3ncccn3)CC2)cc1", "Potency": "inactive"}
{"molecule": "O=C(Nc1ccccc1-c1nc2ccccc2[nH]1)c1ccc(N2C(=O)CCC2=O)cc1", "Potency": "active: 10 µM"}
{"molecule": "Cc1sc(NC(=O)c2sc3nc4c(C)cccc4cc3c2N)c(C#N)c1C", "Potency": "inconclusive: 1.78 µM [inhibitor, full curve, poor fit]"}
{"molecule": "O=S(=O)(c1ccccc1)N1CCN=C1SCc1ccc(Cl)c(Cl)c1", "Potency": "inconclusive: 25.1 µM [inhibitor, single point]"}
{"molecule": "CCSC1=C(C#N)C(c2ccc(OC)c(OC)c2)CC(=O)N1", "note": "(stereo unspecified)", "Potency": "inconclusive: 1.41 µM [inhibitor, full curve, poor fit]"}
{"molecule": "C/C(=N\\OC(=O)NC(C)C)c1sc(-c2ccccc2)nc1C", "Potency": "inconclusive: 31.6 µM [inhibitor, single point]"}
{"molecule": "C[C@@H](C(=O)NCc1ccccc1)[C@@H]1C[C@@]1(C)[C@@H](NC(=O)OCc1ccccc1)c1ccccc1", "Potency": "inconclusive: 2.82 µM [inhibitor, full curve]"}
{"molecule": "COc1cccc(COc2cc3ccccc3nc2C)c1", "Potency": "active: 5.62 µM"}
{"molecule": "O=C(NCCSc1ccc(Cl)cc1)c1ccc(CN2CCOCC2)cc1", "Potency": "inconclusive: 22.4 µM [inhibitor, single point]"}
{"molecule": "COC(=O)Cn1ccc2cc(S(=O)(=O)N3CCCCC3)ccc21", "Potency": "inactive"}
{"molecule": "N#Cc1ccc(/C=C\\c2nccc3c2[nH]c2ccccc23)cc1", "Potency": "inconclusive: 15.8 µM [inhibitor, single point]"}
{"molecule": "COc1ccc(OC)c(Nc2nc(-c3ccncc3)nc3ccccc23)c1", "Potency": "active: 4.47 µM"}
{"molecule": "NS(=O)(=O)c1ccc(CCNc2nc3c(-c4cccc(F)c4)nnn3c3ccccc23)cc1", "Potency": "active: 1.41 µM"}
